In all, about 330,000 compounds went through this assay and about 4,200 (1.3%) were called active. This list was built around the results that the source calls inconclusive (neither active nor inactive); the mix of calls is not that of the screen. Calls come from the whole dose curve; as a rule, active = well fitted activation curve with a large enough effect; inconclusive = small, poorly fitted or top-dose-only effect; inactive = no such curve, though single readings can be large or run the other way. Potencies beside an inconclusive call are fits to weak or partial responses and may not hold up.
Assay: qHTS screen for small molecules that induce genotoxicity in human embryonic kidney (HEK293T) cells expressing luciferase-tagged ELG1; note: nearly all actives have a fitted effect of over 60% in size; for activity change, positive = activation: % of control where 0% means no effect
Conditions: HEK293T ELG1-luciferase reporter, luminescence, 16 h; series mostly up to 46 µM; activity change, positive = activation: at the top concentration
Procedure, shortened: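 16 hr compound incubation (37 °C, 5% CO2) of HEK293T cells carrying luciferase-tagged ELG1; luciferase then measured by ONE-Glo luminescence after 30 min at RT.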
Potency is the fitted concentration of half-maximal effect; tags give direction and shape of the fitted curve.

Structure (SMILES) | Potency | activity change, positive = activation
COc1ccc(OCCCC(=O)OCC(=O)Nc2sccc2C(N)=O)cc1 | inconclusive: 18.3 µM [activator, single point] | –
CC(=O)NS(=O)(=O)c1ccc(NC(=O)c2cc(-c3ccc(C)c(C)c3)nc3ccccc23)cc1 | – | inactive: 2.81%
Cn1c(-c2ccco2)nc2cc3ccccc3cc21 | inconclusive: 0.411 µM [activator, full curve, poor fit] | –
CSc1nnc(NC(=O)c2ccc3c(c2)OCO3)s1 | active: 0.259 µM | –
COc1ccc2oc(=O)c(-c3nnc(NCc4ccco4)s3)cc2c1 | inconclusive: 23.1 µM [activator, partial curve, poor fit] | –
CCOCC(=O)Nc1c(C(=O)Nc2ccc3c(c2)OCCO3)oc2ccccc12 | inconclusive: 0.73 µM [activator, full curve, poor fit] | –
COc1ccc(C(=O)Oc2ccc3c(C)cc(=O)oc3c2C(C)=O)cc1 | – | inactive: 0.158%
COc1ccc(Cn2c(-c3ccco3)nc3oc4cc(OC)ccc4c(=O)c3c2=O)cc1 | inconclusive: 6.51 µM [activator, partial curve, poor fit] | –
Cc1ccc(-c2nc(-c3ccncc3)no2)cc1Cl | inconclusive: 2.06 µM [activator, partial curve] | –
C/C(=N\NC(=O)OC(C)(C)C)c1ccc[nH]1 | active: 14.6 µM | –
Cc1ccc(Cn2c(C3CCCN3c3nc(C)cs3)nc3cc(C(F)(F)F)ccc32)cc1 (stereo unspecified) | – | inactive: -7.42%
CC(C)c1nccn1S(=O)(=O)c1cc([N+](=O)[O-])ccc1Cl | inconclusive: 25.9 µM [activator, partial curve, poor fit] | –
Clc1ccc(CSc2ccc(-c3ccccn3)nn2)cc1 | active: 23.1 µM | –
O=c1oc2ccccc2n1CSc1nc2ccccc2s1 | inconclusive: 6.51 µM [activator, partial curve] | –
CC(C)CCNC(=O)COc1ccc2c(c1)C(=O)CC(C)(C)O2 | inconclusive: 15.8 µM [activator, single point] | –
C(=N\Nc1ccc2ccccc2n1)/c1ccc2c(c1)OCCO2 | inconclusive: 0.058 µM [activator, full curve, poor fit] | –
CCc1ccc(NS(=O)(=O)c2ccc3[nH]cc(C(=O)N4CCc5ccccc54)c(=O)c3c2)cc1 | inconclusive: 29.1 µM [activator, partial curve, poor fit] | –
CC(C)CN=CC1=C(O)c2ccccc2C1=O | inconclusive: 9.2 µM [activator, partial curve] | –

Structure (SMILES) | Potency | activity change, positive = activation
Cc1cc(C)n(CCN(C)Cc2nc(Cc3ccccc3F)no2)n1 | inconclusive: 10.3 µM [activator, partial curve, poor fit] | –
Oc1ccccc1/C=N/N1CCCCC1 | inconclusive: 25.9 µM [activator, partial curve, poor fit] | –
CSc1nnc2c(n1)c(C)nn2-c1cccc(C)c1 | – | inactive: 0.989%
Cc1occc1C(=O)N/N=C/c1ccccc1[N+](=O)[O-] | inconclusive: 9.2 µM [activator, partial curve, poor fit] | –
CCOc1ccc(N=CC2=C(O)CC(C)(C)CC2=O)cc1 | inconclusive: 13 µM [activator, partial curve] | –
Cc1ccc(OCc2ccc(C(=O)N3CCOCC3)cc2)cc1C | inconclusive: 1.84 µM [activator, partial curve] | –
Cc1ccc(CN(C)C(=O)CCNS(=O)(=O)c2ccccc2)o1 | – | inactive: 2.03%
CC1CCN(c2ccc(/C=C(\C#N)c3nn(-c4ccccc4)c(N)c3C#N)cc2[N+](=O)[O-])CC1 | – | inactive: -2.64%
CCc1ccc(C2=NN(S(C)(=O)=O)C(c3cccs3)C2)cc1 (stereo unspecified) | active: 3.26 µM | –
COc1ccc(-c2noc(-c3cccc(Cl)c3)n2)cc1OC | inconclusive: 18.4 µM [activator, partial curve, poor fit] | –
CC(=O)c1cnc(Nc2cccc(Cl)c2Cl)s1 | inconclusive: 20.6 µM [activator, single point] | –
CC(C)c1ccc(OC(=O)c2ccc3c(=O)n4c(nc3c2)CCC4)cc1 | inconclusive: 25.9 µM [activator, single point] | –
CNc1nnc(SCC(=O)c2cc(C)n(C3CC3)c2C)s1 | inconclusive: 13 µM [activator, partial curve] | –
CCOC(=O)Nc1ccc(C(=O)/C=C/c2ccccc2)cc1 | – | inactive: 7.03%
CC1CCCCN1C(=O)COC(=O)c1cc([N+](=O)[O-])ccc1N (stereo unspecified) | – | inactive: 10.4%
CSc1ccccc1OCc1cc(C(=O)N2CCCC(C)C2)no1 (stereo unspecified) | active: 5.17 µM | –
Nc1c2c(=O)oc(-c3ccccc3)cc2nn1-c1ccccc1 | inconclusive: 2.59 µM [activator, partial curve] | –
COC(=O)c1ccc(OCC(=O)c2cccc(OC)c2)cc1 | inconclusive: 14.6 µM [activator, partial curve, poor fit] | –

From PubChem BioAssay AID504466 (National Center for Advancing Translational Sciences (NCATS), 2011)
